According to PMC12136788:
The list shows a part of the results.

T1: UNK ZnF1-3 (human, UniProt Q9C0B0 31-174)
T1 sequence: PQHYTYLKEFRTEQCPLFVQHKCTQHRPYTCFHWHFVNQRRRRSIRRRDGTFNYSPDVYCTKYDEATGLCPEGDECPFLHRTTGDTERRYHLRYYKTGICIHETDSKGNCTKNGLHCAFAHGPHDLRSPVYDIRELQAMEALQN

B1: chr7:149068622:149068623:-_ENSMUSG00000025139_ENSMUST00000001950|mus_hu|mus_mus_mus_hu_False|28_28 (ssRNA)
RNA: GGGAGUUCUACAGUCCGACGAUCGUGAGGCCUCUGAGUGUGGCUUGUGGUCUGUCCUGGGUUAGAGUUGUUAAUAUCACGGAACAUACCAUCUAGAACGUUCCAGUCUGCCUGACUACCUUCAUUCCCAAUGGAGAAGAAAUCCAACAGAGGAUUGAGCAUCA
B2: chr14:31074762:31074763:+_ENSG00000092140_ENST00000206595|hu_hu|FALSE|FALSE (ssRNA)
RNA: GGGAGUUCUACAGUCCGACGAUCCCAGAUAUUGGCUUUGUUGAUAUACAAUCUUUUAGUUUUUUUUUUAAUUUGGAAUCCUAACUCUAUUAAUAGUGUUGAUACAUUUCUUCUAAAUUUGCUGCCUUGCCUCAGUAGAUCUUUCAACAGAGGAUUGAGCAUCA
B3: 730498_730618_283_3pUTR_ENSG00000103266_ENST00000219548|human|control|control (ssRNA)
RNA: GGGAGUUCUACAGUCCGACGAUCCUCCUUGAGCUCCUGCGCGCUCGGGCUCUUCUCGGGGCUUCCGCCGCCAGCGCCCAGCCGUGCGCCGCCCUCCUUCUCCUCCUUGCCCUUCAUGGCGCCGCGCGGCACGGCCUGGGCUCCCAACAGAGGAUUGAGCAUCA
B4: chr5:125368827:125368828:+_ENSMUSG00000079215_ENSMUST00000111417|mus_mus|FALSE|FALSE (ssRNA)
RNA: GGGAGUUCUACAGUCCGACGAUCUAGCUUCAAAAGUGUUAGUUGUAUUCCCCAGCAACCGCAUGAUAAAAUAAUUCAACUAUGUAGAAAUAUAGAACUCUAGGACUAGCUGGAAACUGGGCAAUCAUUUAGUCCAGUGUCCUCCAACAGAGGAUUGAGCAUCA
B5: chr11:72497679:72497680:+_ENSMUSG00000020794_ENSMUST00000021148|mus_hu|FALSE|FALSE (ssRNA)
RNA: GGGAGUUCUACAGUCCGACGAUCAUUGCUAUAUCCAAUCCAAGAGGUGGGUGCAACUAGAAUACAAAAAGGACAAAGCACCUAGUGAUGACUCCUUCGAAGUCAUCAUUAAAAAUCAAGUAAUUGCUCAUUAAGUAUUUCAGUCAACAGAGGAUUGAGCAUCA
B6: chr3:176767854:176767855:-_ENSG00000177565_ENST00000430069|hu_hu|hu_hu_hu_mus_False|8_108 (ssRNA)
RNA: GGGAGUUCUACAGUCCGACGAUCGACAUCCUUGUUGCUGGGCACGUCCUGCCCUCCUUCCCGUAUGCAGUGUCUAAGCACGAGCUGCGUAGGGCCACUCGUGCUGUUCUCACUGAGGUUCCAGAUUCUUGCUGUUGAGUCUCCCAACAGAGGAUUGAGCAUCA
B7: chr7:151048522:151048523:+_ENSG00000013374_ENST00000566856|hu_mus|hu_hu_hu_mus_True|28_38 (ssRNA)
RNA: GGGAGUUCUACAGUCCGACGAUCCUGUUUCUUAUUUAUUACGAUCUUGAUGUAAUUUUCUUGAAAUCCGAAAGUUUCAGCUAUUUGACACCUCAGGUCUCUGCCAGUGAUGUGCAAGCGGGUCUCCAACAAGCUUUUCUUAUCCAACAGAGGAUUGAGCAUCA
B8: chr11:57926588:57926589:+_ENSMUSG00000020515_ENSMUST00000020822|mus_mus|motif|central (ssRNA)
RNA: GGGAGUUCUACAGUCCGACGAUCAUCGAUCCCUUCCUCCUCGUGUUUCUGGAACUGCAGCCCUGAGUUUGCAAGCAGAUCGGUGGAAUCCUGGGAGUACAUAUCCUCUGUCAGGUUGAACUUGAAGUUGAACUGCCAUGUGUUCAACAGAGGAUUGAGCAUCA
B9: chr7:65705844:65705845:+_ENSG00000169902_ENST00000304842|hu_mus|hu_hu_hu_mus_False|1_18 (ssRNA)
RNA: GGGAGUUCUACAGUCCGACGAUCAAACGGAUCUUUGUUACAUAAAUAAGGUGCCGGCUCCCCAUGUUUAACAAUGACCUCCAGAAGGAAGGCUUGCAUGGCAGAAUCUAGCACUUCAUCAGUAACACCCGCCUCAUCCAGGCGCAACAGAGGAUUGAGCAUCA
B10: chr17:49039638:49039639:-_ENSG00000008294_ENST00000262013|hu_hu|motif|central (ssRNA)
RNA: GGGAGUUCUACAGUCCGACGAUCCAUUCUGAACCCCAGGGAUUCCAUAAUAGAAAUAAAUACUGAAAUAACUACAUUGCGGAAUGAGCUCUUUGCUCAUAGAAAUGAAGCUCAGCCUCUAAGAGACAGCAAGUGGGACAUUCUCAACAGAGGAUUGAGCAUCA
B11: chr2:9725471:9725472:-_ENSG00000134308_ENST00000238081|hu_hu|motif|central (ssRNA)
RNA: GGGAGUUCUACAGUCCGACGAUCUGCCGCAUCACAUUCUUCUCCUGCACUGUCUGAUGUCCAAAGUGUUAGGUUGUCUCGGAGCAACUGCAUGAUGAGGGUGCUGUCUUUGUAUGAGUCUUCAUUCAGUGUAUCAAGUUCAGCCAACAGAGGAUUGAGCAUCA
B12: chr14:76904430:76904431:+_ENSMUSG00000022010_ENSMUST00000022587|mus_mus|mus_mus_mus_hu_True|28_28 (ssRNA)
RNA: GGGAGUUCUACAGUCCGACGAUCUGCAGCCAAAAACACCCUCGUGGAAAAAAAGAGGGAACACCAGCAGCCUUGUAUAAGCUAGAUAAAAUCUUCUGGCUUUCCGCAGCUCAGGGCGAAACAGAAAACGGCAGCCCUAAUUUACAACAGAGGAUUGAGCAUCA
B13: chr22:19452774:19452775:-_ENSG00000070010_ENST00000399523|hu_hu|hu_hu_hu_mus_False|8_18 (ssRNA)
RNA: GGGAGUUCUACAGUCCGACGAUCCUUCUCAUUGUAGUUGAUAGCAAUCACAUCUCCAGUCGUCAGACAGGCGAAGUUUCUCAAUGCAUUUUCUAAUACCGCUUUAGGGUUGGUAAUGUCCAGGAAGUCAGGGCUCUGAGGCUGCAACAGAGGAUUGAGCAUCA
B14: 37006464_37006584_4389_CDS_ENSG00000164190_ENST00000448238|human|control|control (ssRNA)
RNA: GGGAGUUCUACAGUCCGACGAUCCACAGCUUUUGGCAUGUUAGGGGAUGUCAUAAUGUUGAUAGUUGUAAGACAAGCAUCCGCUGAUUUUGUAACUCUCUCCAUAAUAAGGUCUCUCCAUAACCUUUCUUCUUCUUCAGUAUCCAACAGAGGAUUGAGCAUCA

What follows are binders tested against T1, UNK ZnF1-3 (assay: nsRBNS (natural sequence RNA bind-n-seq); RBNS binding buffer (assumed for nsRBNS): 25 mM Tris pH 7.5, 150 mM KCl, 3 mM MgCl2, 0.01% Triton X-100, 500 ug/ml BSA, 20 U/ml SUPERase-In, 4 C; UNK is unkempt and MSI1 is Musashi-1; names of the RNAs are library labels; protein concentration not given here; high values mean tight binding).

Row | Binder | binding signal [enrichment R]
1 | B1 | 0.796
2 | B2 | 0.804
3 | B3 | 0.651
4 | B4 | 1.37
5 | B5 | 1.45
6 | B6 | 0.446
7 | B7 | 0.51
8 | B8 | 0.891
9 | B9 | 0.309
10 | B10 | 1.43
11 | B11 | 0.881
12 | B12 | 1.84
13 | B13 | 0.792
14 | B14 | 0.744
